Measured values reported in the antibiotic and cytotoxicity screens of Wong et al. (2023).
This is one part of the list.

Assays:
HSkMC = human skeletal muscle cells; assay: cytotoxicity call (relative viability < 0.9); conditions: 10 µM
HepG2 = assay: cytotoxicity call (relative viability < 0.9); conditions: 10 µM
S. aureus RN4220 = assay: growth inhibition call (relative growth <= 0.2); conditions: 50 µM

Structure (SMILES) | cytotoxicity call (HSkMC) | cytotoxicity call (HepG2) | growth inhibition call (S. aureus RN4220)
COc1ccc(NC(=O)N(C)C[C@H]2OCCCC[C@@H](C)Oc3ccc(NS(=O)(=O)c4c(C)noc4C)cc3C(=O)N([C@H](C)CO)C[C@@H]2C)cc1 | inactive | inactive | inactive
Cc1c(N(C)CS(=O)(=O)[O-])c(=O)n(-c2ccccc2)n1C.[Na+] | inactive | inactive | inactive
C[C@@H]1CCCCO[C@@H](CN(C)Cc2ccc3c(c2)OCO3)[C@H](C)CN([C@@H](C)CO)C(=O)c2cc(NC(=O)CCC(F)(F)F)ccc2O1 | inactive | inactive | inactive
CC1(C)CNCC(=O)NC1 | inactive | inactive | inactive
CO[C@@H]1CN(C)C(=O)c2cc(NC(=O)c3ccccc3)ccc2OC[C@H](C)N(C(=O)CN(C)C)C[C@H]1C | inactive | inactive | inactive
C[C@@H]1CN([C@@H](C)CO)C(=O)c2cc(NC(=O)CCC(F)(F)F)ccc2O[C@H]1CN(C)C(=O)Nc1cccc2ccccc12 | inactive | inactive | inactive
c1cn(-c2ccc(-n3ccnc3)nn2)cn1 | inactive | inactive | inactive
Cc1ccc(S(=O)(=O)N(C)C[C@H]2Oc3c(NC(=O)Nc4cccc5ccccc45)cccc3C(=O)N([C@H](C)CO)C[C@H]2C)cc1 | inactive | inactive | inactive
C[C@@H]1CN([C@H](C)CO)C(=O)c2cc(NS(=O)(=O)c3cn(C)cn3)ccc2O[C@@H]1CN(C)Cc1ccncc1 | inactive | inactive | inactive
O=C(C[C@@H]1CC[C@@H]2[C@H](COC[C@H](O)CN2S(=O)(=O)c2ccccc2)O1)NCCN1CCCC1 | inactive | inactive | inactive
C[C@@H]1CN([C@@H](C)CO)C(=O)c2cc(NC(=O)NC3CCCCC3)ccc2O[C@@H](C)CCCCO[C@@H]1CN(C)CC1CCCCC1 | inactive | inactive | inactive
COc1ccc(NC(=O)Nc2ccc3c(c2)[C@H]2C[C@@H](CC(=O)N4CCN(C)CC4)O[C@@H](CO)[C@H]2O3)cc1 | inactive | inactive | inactive
CC(C)NC(=O)Nc1ccc2c(c1)CC(=O)N([C@@H](C)CO)C[C@@H](C)[C@@H](CN(C)S(=O)(=O)c1ccccc1)O2 | inactive | inactive | inactive
COCC#Cc1ccc2c(c1)O[C@@H](CN(C)C(=O)Nc1ccccc1F)[C@H](C)CN([C@H](C)CO)S2(=O)=O | inactive | inactive | inactive
CC(=O)NCCCC[C@@H]1NC(=O)[C@H]2C[C@@H](C(=O)NCc3ccc(F)cc3)[C@@H](c3ccc(O)cc3)N2C1=O | inactive | inactive | inactive
C=CCC[C@H](Cc1ccc(F)cc1)C(=O)OC[C@@H](Cc1c[nH]c2ccccc12)NC(=O)[C@@H](CC=C)CC(=O)N[C@@H](CO)Cc1ccccc1 | inactive | inactive | inactive
CN1CCN(C(=O)C[C@H]2CC[C@H]3[C@@H](COc4ccc(NC(=O)c5ccc(F)c(F)c5)cc4C(=O)N3C)O2)CC1 | inactive | inactive | inactive
C[C@H](CO)N1C[C@H](C)[C@H](CN(C)Cc2ccc(C(F)(F)F)cc2)Oc2ccc(NC(=O)CCCCCC(=O)Nc3ccccc3N)cc2CC1=O | inactive | active | inactive
C[C@H](CO)N1C[C@H](C)[C@@H](CN(C)CC2CCCCC2)OCCCC[C@H](C)Oc2ccc(NS(=O)(=O)c3cccs3)cc2C1=O | inactive | inactive | inactive
FC(F)(F)c1ccccc1/N=C1\CCCc2ccccc21 | inactive | inactive | inactive
COCC(=O)Nc1ccc2c(c1)C(=O)N(C)C[C@@H](OC)[C@H](C)CN(C(=O)Cc1ccccn1)[C@@H](C)CO2 | inactive | inactive | inactive
C[C@H]1CN([C@@H](C)CO)C(=O)c2cc(NC(=O)Cn3cnnn3)ccc2O[C@@H]1CN(C)S(=O)(=O)c1ccccc1 | inactive | inactive | inactive
C[C@@H]1CN([C@H](C)CO)C(=O)c2cc(N(C)C)ccc2O[C@@H](C)CCCCO[C@@H]1CN(C)CC1CCCCC1 | inactive | inactive | inactive
C[C@H](CO)N1C[C@H](C)[C@@H](CN(C)Cc2ccc(Cl)c(Cl)c2)OCCCC[C@H](C)Oc2ccc(NC(=O)Nc3ccc4c(c3)OCO4)cc2C1=O | active | inactive | inactive
CN1CCN(C(=O)C[C@@H]2C=C[C@@H](NC(=O)c3ccc4c(c3)OCO4)[C@H](CO)O2)CC1 | inactive | inactive | inactive
